Data reported in PMC9861212 (Metabolites, 2022).
Like-named read-outs stand apart in the source and are kept apart here. Each block holds one compound with its values, some of them ahead of it.

Tests used:
[1] = Metabolite profile of SMZ in pigs (LC-v.ARC/MS-IT-TOF); conditions: within 12 h after dosing
[2] = Metabolite profile of SMZ in chickens (LC-v.ARC/MS-IT-TOF); conditions: within 12 h after dosing
[3] = Metabolite profile of SMZ in rats (LC-v.ARC/MS-IT-TOF); conditions: within 12 h after dosing
[4] = single i.m. 25 mg/kg b.w.
[5] = Tissue distribution and residue depletion in chickens; conditions: chicken, oral gavage 25 mg/kg twice a day for 7 d
[6] = Tissue distribution and residue depletion in rats; conditions: rat, single i.m. 25 mg/kg
[7] = Tissue distribution and residue depletion in pigs; conditions: pig, i.m. 25 mg/kg twice a day for 7 d
[8] = chickens; single oral gavage 25 mg/kg b.w.; in one day
[9] = pigs; single i.m. 25 mg/kg b.w.; in one day

Compound: Cc1cc(NS(=O)(=O)c2ccc(N)cc2)no1 [Compound S0, sulfamethoxazole]
Percentage of the individual metabolite compared with total concentration of SMZ-related compounds ([1]; pig bile): 74.5%
Percentage of the individual metabolite compared with total concentration of SMZ-related compounds ([1]; pig feces): 12.1%
Percentage of the individual metabolite compared with total concentration of SMZ-related compounds ([1]; pig plasma): 80.3%
Percentage of the individual metabolite compared with total concentration of SMZ-related compounds ([1]; pig urine): 24.6%
Percentage of the individual metabolite compared with total concentration of SMZ-related compounds ([2]; chicken Extra (feces/excreta)): 69.6%
Percentage of the individual metabolite compared with total concentration of SMZ-related compounds ([2]; chicken bile): 88.2%
Percentage of the individual metabolite compared with total concentration of SMZ-related compounds ([2]; chicken plasma (blood)): 91.2%
Percentage of the individual metabolite compared with total concentration of SMZ-related compounds ([3]; rat feces): 38.3%
Percentage of the individual metabolite compared with total concentration of SMZ-related compounds ([3]; rat plasma): 94.5%
Percentage of the individual metabolite compared with total concentration of SMZ-related compounds ([3]; rat urine): 48.4%
Excreted through urine ([4]; rats (sexes together), within 14 d): > 75%

Compound: CC(=O)Nc1ccc(S(=O)(=O)Nc2cc(C)on2)cc1 [Compound S1, N4-acetyl-sulfamethoxazole]
Concentration of the metabolites in kidney ([5]; 0.25 d): 234 ± 87 µg/kg
Concentration of the metabolites in kidney ([5]; 3 d): 89 ± 34 µg/kg
Concentration of the metabolites in kidney ([6]; 0.25 d): 4046 ± 584 µg/kg
Concentration of the metabolites in kidney ([6]; 1 d): 280 ± 79 µg/kg
Concentration of the metabolites in kidney ([6]; 3 d): 70 ± 21 µg/kg
Concentration of the metabolites in kidney ([7]; 0.5 d): 8645 ± 987 µg/kg
Concentration of the metabolites in kidney ([7]; 3 d): 308 ± 56 µg/kg
Concentration of the metabolites in kidney ([7]; 7 d): 93 ± 33 µg/kg
Concentration of the metabolites in kidney ([7]; 14 d): 38 ± 11 µg/kg

Cumulative excretion recovery rate [8]: 75%
Recovery of total radioactivity in urine ([4]; male rats, 0–14 d): 75.32 ± 4.54%
Cumulative excretion recovery rate ([4]; rats, in one day): 83%
Cumulative excretion recovery rate [9]: 83%
Compound: [3H]c1cc(N)ccc1S(=O)(=O)Nc1cc(C)on1 [[^3H]-SMZ, 2-[^3H]-sulfamethoxazole]
